From a compilation of properties of binary mixtures (doi:10.1016/j.molliq.2020.113742)
The densities may have been worked out from excess volumes.

Test: xn = mol fraction of the nth substance listed
Conditions: 101.3 kPa

CCCC[N+]1(C)CCCC1.F[P-](F)(F)(F)(F)F + CCCC[n+]1cccc(C)c1.F[P-](F)(F)(F)(F)F
mass density (303.13 K, x2 = 0.4): 1322 kg/m3
mass density (308.15 K, x2 = 0.5): 1320 kg/m3
mass density (308.15 K, x2 = 0.6): 1322 kg/m3
mass density (313.15 K, x2 = 0.3): 1311 kg/m3
mass density (313.15 K, x2 = 0.5): 1316 kg/m3
mass density (313.15 K, x2 = 0.6): 1318 kg/m3
mass density (313.15 K, x2 = 0.7): 1321 kg/m3
mass density (318.15 K, x2 = 0.3): 1307 kg/m3
mass density (318.15 K, x2 = 0.6): 1315 kg/m3
mass density (318.15 K, x2 = 0.7): 1317 kg/m3
mass density (318.15 K, x2 = 0.8): 1320 kg/m3
mass density (323.15 K, x2 = 0.3): 1304 kg/m3
mass density (323.15 K, x2 = 0.4): 1306 kg/m3
mass density (323.15 K, x2 = 0.5): 1308 kg/m3
mass density (323.15 K, x2 = 0.6): 1311 kg/m3
mass density (323.15 K, x2 = 0.7): 1313 kg/m3
mass density (323.15 K, x2 = 0.8): 1316 kg/m3
mass density (323.15 K, x2 = 0.9): 1318 kg/m3
mass density (328.15 K, x2 = 0.2): 1297 kg/m3
mass density (328.15 K, x2 = 0.3): 1300 kg/m3
mass density (328.15 K, x2 = 0.5): 1304 kg/m3
mass density (328.15 K, x2 = 0.6): 1307 kg/m3
mass density (328.15 K, x2 = 0.8): 1312 kg/m3
mass density (333.15 K, x2 = 0.2): 1294 kg/m3
mass density (333.15 K, x2 = 0.3): 1296 kg/m3
mass density (333.15 K, x2 = 0.4): 1299 kg/m3
mass density (333.15 K, x2 = 0.5): 1301 kg/m3
mass density (333.15 K, x2 = 0.7): 1306 kg/m3
mass density (333.15 K, x2 = 0.8): 1308 kg/m3
mass density (333.15 K, x2 = 0.9): 1310 kg/m3
mass density (338.15 K, x2 = 0.2): 1290 kg/m3
mass density (338.15 K, x2 = 0.3): 1292 kg/m3
mass density (338.15 K, x2 = 0.4): 1295 kg/m3
mass density (338.15 K, x2 = 0.6): 1299 kg/m3
mass density (338.15 K, x2 = 0.7): 1302 kg/m3
mass density (338.15 K, x2 = 0.8): 1304 kg/m3
mass density (338.15 K, x2 = 0.9): 1307 kg/m3
mass density (343.15 K, x2 = 0.3): 1289 kg/m3
mass density (343.15 K, x2 = 0.5): 1293 kg/m3
mass density (343.15 K, x2 = 0.7): 1298 kg/m3
mass density (343.15 K, x2 = 0.8): 1300 kg/m3
mass density (343.15 K, x2 = 0.9): 1302 kg/m3
mass density (348.15 K, x2 = 0.2): 1283 kg/m3
mass density (348.15 K, x2 = 0.3): 1285 kg/m3
mass density (348.15 K, x2 = 0.4): 1287 kg/m3
mass density (348.15 K, x2 = 0.5): 1289 kg/m3
mass density (348.15 K, x2 = 0.7): 1294 kg/m3
mass density (348.15 K, x2 = 0.8): 1296 kg/m3
mass density (348.15 K, x2 = 0.9): 1299 kg/m3
mass density (353.15 K, x2 = 0.2): 1279 kg/m3
mass density (353.15 K, x2 = 0.3): 1281 kg/m3
mass density (353.15 K, x2 = 0.5): 1286 kg/m3
mass density (353.15 K, x2 = 0.6): 1288 kg/m3
mass density (353.15 K, x2 = 0.7): 1290 kg/m3
mass density (353.15 K, x2 = 0.8): 1293 kg/m3
mass density (353.15 K, x2 = 0.9): 1295 kg/m3
mass density (358.15 K, x2 = 0.3): 1278 kg/m3
mass density (358.15 K, x2 = 0.5): 1282 kg/m3
mass density (358.15 K, x2 = 0.6): 1284 kg/m3
mass density (358.15 K, x2 = 0.7): 1287 kg/m3
mass density (358.15 K, x2 = 0.8): 1289 kg/m3
mass density (358.15 K, x2 = 0.9): 1291 kg/m3
mass density (363.15 K, x2 = 0.2): 1272 kg/m3
mass density (363.15 K, x2 = 0.3): 1274 kg/m3
mass density (363.15 K, x2 = 0.4): 1276 kg/m3
mass density (363.15 K, x2 = 0.7): 1283 kg/m3
mass density (363.15 K, x2 = 0.8): 1285 kg/m3
mass density (363.15 K, x2 = 0.9): 1287 kg/m3

CCCC[N+]1(C)CCCCC1.F[P-](F)(F)(F)(F)F + CCCC[n+]1cccc(C)c1.F[P-](F)(F)(F)(F)F
mass density (298.15 K, x1 = 0.6): 1315 kg/m3
mass density (303.15 K, x1 = 0.5): 1315 kg/m3
mass density (303.15 K, x1 = 0.6): 1311 kg/m3
mass density (308.15 K, x1 = 0.4): 1315 kg/m3
mass density (308.15 K, x1 = 0.5): 1311 kg/m3
mass density (308.15 K, x1 = 0.6): 1307 kg/m3
mass density (308.15 K, x1 = 0.7): 1303 kg/m3
mass density (313.15 K, x1 = 0.4): 1311 kg/m3
mass density (313.15 K, x1 = 0.6): 1303 kg/m3
mass density (313.15 K, x1 = 0.7): 1299 kg/m3
mass density (318.15 K, x1 = 0.4): 1308 kg/m3
mass density (318.15 K, x1 = 0.6): 1300 kg/m3
mass density (318.15 K, x1 = 0.7): 1296 kg/m3
mass density (318.15 K, x1 = 0.8): 1292 kg/m3
mass density (323.15 K, x1 = 0.1): 1317 kg/m3
mass density (323.15 K, x1 = 0.2): 1312 kg/m3
mass density (323.15 K, x1 = 0.3): 1308 kg/m3
mass density (323.15 K, x1 = 0.4): 1304 kg/m3
mass density (323.15 K, x1 = 0.6): 1296 kg/m3
mass density (323.15 K, x1 = 0.7): 1292 kg/m3
mass density (323.15 K, x1 = 0.8): 1288 kg/m3
mass density (328.15 K, x1 = 0.2): 1308 kg/m3
mass density (328.15 K, x1 = 0.3): 1304 kg/m3
mass density (328.15 K, x1 = 0.4): 1300 kg/m3
mass density (328.15 K, x1 = 0.5): 1296 kg/m3
mass density (328.15 K, x1 = 0.6): 1292 kg/m3
mass density (328.15 K, x1 = 0.7): 1288 kg/m3
mass density (328.15 K, x1 = 0.8): 1285 kg/m3
mass density (333.15 K, x1 = 0.1): 1308 kg/m3
mass density (333.15 K, x1 = 0.2): 1305 kg/m3
mass density (333.15 K, x1 = 0.3): 1300 kg/m3
mass density (333.15 K, x1 = 0.4): 1296 kg/m3
mass density (333.15 K, x1 = 0.5): 1292 kg/m3
mass density (333.15 K, x1 = 0.6): 1289 kg/m3
mass density (333.15 K, x1 = 0.8): 1281 kg/m3
mass density (338.15 K, x1 = 0.1): 1305 kg/m3
mass density (338.15 K, x1 = 0.2): 1300 kg/m3
mass density (338.15 K, x1 = 0.3): 1296 kg/m3
mass density (338.15 K, x1 = 0.4): 1293 kg/m3
mass density (338.15 K, x1 = 0.5): 1289 kg/m3
mass density (338.15 K, x1 = 0.6): 1285 kg/m3
mass density (338.15 K, x1 = 0.8): 1277 kg/m3
mass density (343.15 K, x1 = 0.3): 1293 kg/m3
mass density (343.15 K, x1 = 0.4): 1289 kg/m3
mass density (343.15 K, x1 = 0.5): 1285 kg/m3
mass density (343.15 K, x1 = 0.6): 1281 kg/m3
mass density (343.15 K, x1 = 0.7): 1278 kg/m3
mass density (348.15 K, x1 = 0.1): 1297 kg/m3
mass density (348.15 K, x1 = 0.4): 1285 kg/m3
mass density (348.15 K, x1 = 0.5): 1282 kg/m3
mass density (348.15 K, x1 = 0.6): 1278 kg/m3
mass density (348.15 K, x1 = 0.7): 1274 kg/m3
mass density (348.15 K, x1 = 0.8): 1270 kg/m3
mass density (353.15 K, x1 = 0.1): 1293 kg/m3
mass density (353.15 K, x1 = 0.2): 1289 kg/m3
mass density (353.15 K, x1 = 0.4): 1281 kg/m3
mass density (353.15 K, x1 = 0.5): 1278 kg/m3
mass density (353.15 K, x1 = 0.6): 1274 kg/m3
mass density (353.15 K, x1 = 0.7): 1270 kg/m3
mass density (353.15 K, x1 = 0.8): 1267 kg/m3
mass density (358.15 K, x1 = 0.1): 1289 kg/m3
mass density (358.15 K, x1 = 0.4): 1277 kg/m3
mass density (358.15 K, x1 = 0.5): 1274 kg/m3
mass density (358.15 K, x1 = 0.6): 1270 kg/m3
mass density (358.15 K, x1 = 0.7): 1267 kg/m3
mass density (363.15 K, x1 = 0.1): 1286 kg/m3
mass density (363.15 K, x1 = 0.2): 1282 kg/m3
mass density (363.15 K, x1 = 0.4): 1274 kg/m3
mass density (363.15 K, x1 = 0.5): 1270 kg/m3
mass density (363.15 K, x1 = 0.6): 1267 kg/m3
mass density (363.15 K, x1 = 0.7): 1263 kg/m3
mass density (363.15 K, x1 = 0.8): 1260 kg/m3
